Assay results from PubChem BioAssay AID588591 (National Center for Advancing Translational Sciences (NCATS), 2011).
Screen size: about 390,000 compounds; about 4,700 (1.2%) were called active. The shares of active, inactive and inconclusive entries below differ from those in the screen. Calls follow the shape of the dose curve; as a rule, active = well fitted inhibition curve with a large enough effect; inconclusive = small, poorly fitted or top-dose-only effect, or another doubt; inactive = no such curve, though single readings can be large or run the other way. Potencies of inconclusive entries are doubtful fits and often do not repeat.

Each molecule was assayed against DNA polymerase eta (Homo sapiens) (UniProt Q9Y253) (assay: qHTS for Inhibitors of Polymerase Eta). Details: recombinant Pol eta, fluorescent DNA replication assay; series mostly up to 114 µM; activity change, negative = inhibition: at the top concentration.
How it was run: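 Pol eta (10 nM) was preincubated with compounds for 15 min at room temperature, after which fluorescent replication substrate (50 nM final) was added to start the reaction. Fluorescence was read kinetically at 0 and 10 min.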
% is scaled to controls: 0 for no effect and ±100 for the full control effect; potency is read from the fitted curve at half-maximal effect; tags tell the direction and shape of the fitted curve.

Sequence of UniProt Q9Y253 (Q9Y253 whole entry, looked up): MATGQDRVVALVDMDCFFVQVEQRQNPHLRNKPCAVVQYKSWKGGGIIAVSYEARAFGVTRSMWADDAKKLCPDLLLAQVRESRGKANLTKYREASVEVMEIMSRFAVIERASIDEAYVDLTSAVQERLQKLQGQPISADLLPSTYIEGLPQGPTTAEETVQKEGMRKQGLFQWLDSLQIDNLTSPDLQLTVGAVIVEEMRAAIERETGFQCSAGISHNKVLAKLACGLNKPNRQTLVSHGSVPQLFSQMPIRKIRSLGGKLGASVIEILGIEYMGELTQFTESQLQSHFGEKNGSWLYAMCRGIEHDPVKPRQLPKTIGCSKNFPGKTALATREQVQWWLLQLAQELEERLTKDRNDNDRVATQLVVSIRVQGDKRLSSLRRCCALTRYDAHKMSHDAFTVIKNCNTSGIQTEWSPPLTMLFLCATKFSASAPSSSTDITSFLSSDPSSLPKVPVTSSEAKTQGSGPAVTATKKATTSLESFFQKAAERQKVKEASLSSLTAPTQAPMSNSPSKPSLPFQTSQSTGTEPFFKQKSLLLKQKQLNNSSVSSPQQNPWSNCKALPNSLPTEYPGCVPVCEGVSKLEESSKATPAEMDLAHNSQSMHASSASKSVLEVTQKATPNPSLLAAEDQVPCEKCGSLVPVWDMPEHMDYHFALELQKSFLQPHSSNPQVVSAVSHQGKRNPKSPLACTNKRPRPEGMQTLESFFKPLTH

| Structure (SMILES) | Potency | activity change, negative = inhibition |
| --- | --- | --- |
| O=C(Nc1cc(C(F)(F)F)ccc1Cl)C1CCN(c2nnc(-n3cccc3)s2)CC1 | inconclusive: 12.6 µM [inhibitor, partial curve, poor fit] |  |
| O=C(Nc1nnc(C23CC4CC(CC(C4)C2)C3)s1)c1ccc(N2C(=O)CCC2=O)cc1 | inconclusive: 28.2 µM [inhibitor, full curve] |  |
| C/C(N)=C(/C#N)C(=O)CSc1nnc(-c2ccccc2Br)o1 | inconclusive: 31.6 µM [inhibitor, partial curve, poor fit] |  |
| CN(C)CCCN(C(=O)COc1ccccc1)c1nc2c(Cl)cccc2s1 | inconclusive: 89.1 µM [inhibitor, partial curve, poor fit] |  |
| OC(CC(O)c1ccccc1)c1ccccc1 (configuration not stated) | inconclusive: 100 µM [inhibitor, partial curve, poor fit] |  |
| Cc1csc(NC(=O)CSc2sc3c(O)cc(=O)[nH]c3c2C#N)n1 | active: 17.8 µM |  |
| COCCn1c(C)cc(C(=O)COC(=O)c2cc3c(s2)CCC3)c1C | active: 8.91 µM |  |
| CCCCn1c(SCC(=O)/C(C#N)=C(\C)N)nc2ccccc2c1=O | inconclusive: 28.2 µM [inhibitor, single point] |  |
| COc1ccc(OC)c(NC(=O)CCn2cnnn2)c1 |  | inactive: -2.14% |
| COc1ccc(/C=C2/C(=N)N3N=C(CC(=O)N4CCCC4)SC3=NC2=O)cc1 | inconclusive: 89.1 µM [inhibitor, partial curve, poor fit] |  |
| Cc1nn(CC(=O)NCCc2ccco2)c(=O)c2nn(-c3ccccc3)c(C)c12 | active: 31.6 µM |  |
| O=C(N/N=C/c1ccc([N+](=O)[O-])o1)c1cc2c(ccc3ccccc32)o1 | active: 31.6 µM |  |
| O=C(c1cn(-c2ccccc2)nc1-c1ccc(F)cc1)N1CCCCC1 | inconclusive: 56.2 µM [inhibitor, partial curve, poor fit] |  |
| COc1cc(/C=C2\SC(=O)N(CC(=O)Nc3cccc(C)c3)C2=O)cc([N+](=O)[O-])c1O | active: 22.4 µM |  |
| O=S(=O)(NCc1ccccc1)c1cccs1 | inconclusive: 39.8 µM [inhibitor, partial curve, poor fit] |  |
| CN(C)S(=O)(=O)c1ccc2c(c1)N(CC(=O)NCc1ccccc1)C(=O)C1CCCCN21 (configuration not stated) |  | inactive: -21.5% |
| CCCc1ccc(C(=O)Cn2nc(C(=O)O)c3ccccc3c2=O)cc1 | inconclusive: 79.4 µM [inhibitor, partial curve] |  |
| Cc1ccc(OCC(=O)NN=C2C3CC4CC(C3)CC2C4)cc1 |  | inactive: -17.6% |
| CCCCCC(=O)N1C[C@H](n2cc(COC(=O)c3ccccc3)nn2)[C@@H](O)C[C@@H]1c1ccc(OC)cc1 | inconclusive: 89.1 µM [inhibitor, partial curve, poor fit] |  |
| CC(=O)c1ccc(NC(=S)NC(=O)/C=C/c2ccco2)cc1 | inconclusive: 20 µM [inhibitor, full curve] |  |
| CCCn1c(NCc2ccco2)nc2ccccc21 |  | inactive: -8.25% |
| Cc1c(C(=O)O)sc(S(=O)(=O)N2CCN(C(=O)Cc3ccc(Cl)cc3)CC2)c1C(=O)O | inconclusive: 31.6 µM [inhibitor, partial curve, poor fit] |  |
| CC1CCCCN1C(=S)NC(=O)c1ccco1 (configuration not stated) | inconclusive: 31.6 µM [inhibitor, partial curve, poor fit] |  |

| Structure (SMILES) | Potency | activity change, negative = inhibition |
| --- | --- | --- |
| CCCC(C(=O)NCc1ccco1)N(C(=O)CNS(=O)(=O)c1ccc(Cl)cc1)C1CCCC1 (configuration not stated) | inconclusive: 22.4 µM [inhibitor, full curve, poor fit] |  |
| CCCc1cnc2c(c1SCC(=O)Nc1ccc([N+](=O)[O-])cc1)c(=O)n(C)c(=O)n2C |  | inactive: 0.627% |
| COc1ccc(NC(=O)CCS(=O)(=O)c2cc3c(cc2C)NC(=O)CO3)cc1Cl |  | inactive: -9.53% |
| O=C(O)c1ccccc1-c1ccc(/C=C2\SC(=O)N(c3ccccc3)C2=O)o1 | inconclusive: 17.8 µM [inhibitor, full curve, poor fit] |  |
| CCOC(=O)C1Nc2ccc(Br)cc2C2C=CCC12 (configuration not stated) | active: 79.4 µM |  |
| CN(C)c1ccc(-c2sc(Nc3ccccc3)n[n+]2-c2ccc(F)cc2)cc1 |  | inactive: -8.25% |
| COc1ccc([C@H]2CC(=O)C=C(c3cc(C)ccc3F)C2)cc1 | inconclusive: 100 µM [inhibitor, partial curve, poor fit] |  |
| Cc1cc(O)c(C=O)c2c1C(=O)Oc1c(CO)c(O)c3c(c1O2)C(O)OC3=O (configuration not stated) | active: 2.82 µM |  |
| CCOC(=O)c1c(NC(=S)NNS(=O)(=O)c2ccc(Br)cc2)sc2c1CCCCC2 | inconclusive: 17.8 µM [inhibitor, full curve, poor fit] |  |
| CCOC(=O)c1cc2c(ccn2C)n1CC(=O)N1CCN(c2cccc(C(F)(F)F)c2)CC1 | inconclusive: 31.6 µM [inhibitor, single point] |  |
| COc1cc(NC(=O)Cn2c(-c3ccccc3)cc(C(C)=O)c2C)cc(OC)c1 | inconclusive: 112 µM [inhibitor, partial curve, poor fit] |  |
| CC1(C)CC(=O)C=C(c2ccc(F)cc2OCc2ccccc2)C1 | inconclusive: 89.1 µM [inhibitor, partial curve, poor fit] |  |
| CCOC(=O)Cn1c(=NC(=O)c2cccs2)sc2cc(C(=O)OC)ccc21 | inconclusive: 14.1 µM [inhibitor, partial curve] |  |
| COc1ccc(C2C(C(C)=O)=C(C)N=c3s/c(=C\c4ccco4)c(=O)n32)c(OC)c1 (configuration not stated) |  | inactive: 2.27% |
| CCCCN1CC(COc2ccccc2)Oc2cccc(F)c2S1(=O)=O (configuration not stated) | inconclusive: 79.4 µM [inhibitor, partial curve, poor fit] |  |
| C/C(CCC(C)C)=N\NS(=O)(=O)c1ccc(C)c([N+](=O)[O-])c1 |  | inactive: -0.0602% |
| O=C(O)CCN1C(=O)/C(=C/c2cn(-c3ccccc3)nc2-c2cccs2)SC1=S | active: 35.5 µM |  |
| O=C(CCCN1C(=O)/C(=C/c2ccc3c(c2)OCO3)SC1=S)Nc1ccc(C(=O)O)cc1 | active: 89.1 µM |  |
| O=C(CSc1ncc2c(n1)-c1ccccc1N(Cc1ccc(Cl)cc1)S2(=O)=O)c1ccc(Cl)cc1 |  | inactive: -0.47% |
| Cc1ccc(N2CC(C(=O)N3CCN(c4ccccn4)CC3)CC2=O)cc1 (configuration not stated) | active: 50.1 µM |  |
| COc1cc(/C=C/C(=O)O)cc(S(=O)(=O)Nc2ccccc2C(=O)NCc2ccco2)c1OC | active: 22.4 µM |  |
| COc1ccccc1NC(=O)C1=C(C)NC(SCC(=O)c2ccccc2)=C(C#N)C1c1ccco1 (configuration not stated) | inconclusive: 15.8 µM [inhibitor, partial curve, poor fit] |  |
| CCC(c1nnnn1Cc1ccco1)N(CCc1ccccc1)Cc1cc2cccc(C)c2[nH]c1=O (configuration not stated) | inconclusive: 89.1 µM [inhibitor, partial curve, poor fit] |  |

| Structure (SMILES) | Potency | activity change, negative = inhibition |
| --- | --- | --- |
| CC(OC(=O)C1CC1)C(=O)Nc1cc(Cl)cc(Cl)c1 (configuration not stated) |  | inactive: -7.62% |
| O=C1/C(=C/c2ccc(F)cc2)SC(=S)N1NS(=O)(=O)c1ccccc1 | inconclusive: 89.1 µM [inhibitor, single point] |  |
| Cc1cc(C)nc(NNS(=O)(=O)c2ccc(Cl)cc2)n1 |  | inactive: -14.4% |
| CC1=NN(Cc2ccccc2)C(=O)C1C(c1ccccc1)C(C#N)C#N (configuration not stated) |  | inactive: 4.4% |
| Fc1ccc(C2CC(c3ccc(F)cc3)n3ncnc3N2)cc1 (configuration not stated) |  | inactive: -11% |
| O=C1c2ccccc2-c2nnc(-c3ccccc3)cc21 |  | inactive: -5.15% |
| COC(=O)c1cc2c(-c3ccccc3)cc3ccccn3c-2c1C(=O)OC | inconclusive: 17.8 µM [inhibitor, full curve] |  |
| Nc1ccc(C(=O)NN2C(=O)[C@H](Cl)C2c2ccc(Cl)cc2)cc1 (some centres not stated) | inconclusive: 31.6 µM [inhibitor, partial curve, poor fit] |  |
| O=C(Nc1ccc(S(=O)(=O)Nc2nccs2)cc1)C1=NN(c2ccccc2)C(=O)CC1 | active: 50.1 µM |  |
| O=C(NCc1ccco1)c1cc2nc(C3CC3)cc(C(F)(F)F)n2n1 | inconclusive: 22.4 µM [inhibitor, partial curve, poor fit] |  |
| CCN(CC(=O)Nc1cc(Cl)ccc1C)C(=O)c1oc2ccc(OC)cc2c1C | inconclusive: 15.8 µM [inhibitor, partial curve, poor fit] |  |
| O=c1c2c3nc4ccccc4nc3n(Cc3ccccc3)c2ncn1Cc1ccco1 | active: 17.8 µM |  |
| Cc1cccc(NC(=O)COC(=O)C(NC(=O)c2cccc(S(=O)(=O)N3CCOCC3)c2)C(C)C)c1 (configuration not stated) | inconclusive: 0.631 µM [inhibitor, full curve, poor fit] |  |
| Cc1cc(NC(=O)CSc2nc3c(c(-c4cccnc4)c2C#N)CCC3)no1 | inconclusive: 56.2 µM [inhibitor, partial curve, poor fit] |  |
| O=C(O)/C(=C/c1ccc(Cl)c([N+](=O)[O-])c1)c1ccc(S(=O)(=O)N2CCCCC2)s1 | active: 28.2 µM |  |
| CCOC(=O)c1cnc(-n2nc(C)cc2C)nc1NCc1ccc2c(c1)OCO2 | inconclusive: 20 µM [inhibitor, partial curve, poor fit] |  |
| Cc1sc(-n2c(C)cc(C=O)c2C)c(C(=O)O)c1C | active: 50.1 µM |  |
| O=C(COC(=O)c1cc(-c2ccco2)nc2ccccc12)NCc1ccc2c(c1)OCO2 | inconclusive: 25.1 µM [inhibitor, partial curve, poor fit] |  |
| O=c1oc(-c2ccc(O)c(O)c2)cc2cccc(O)c12 | active: 35.5 µM |  |
| O=C(Nc1nccs1)c1ccc(-c2ccccc2[N+](=O)[O-])o1 | inconclusive: 56.2 µM [inhibitor, partial curve] |  |
| CCOC(=O)C1=C(CSc2nc3c(cc2C#N)CN(C)CC3)OC(N)=C(C#N)C1c1ccccc1 (configuration not stated) | inconclusive: 31.6 µM [inhibitor, partial curve, poor fit] |  |
